Assay results: PubChem BioAssay (Tox21)
Values joined by “and” are separate entries in the source; they are usually repeats but may differ in a detail not shown here. Identical values can stand only once. The shares of active, inactive and inconclusive entries below differ from those in the screen. Where the call is inconclusive, the potency comes from a doubtful curve fit. Some compounds were tested as several samples or in several runs, with calls that do not always agree. Active and inactive are the calls of the source. Calls come from the whole dose curve; as a rule, active = well fitted inhibition curve with a large enough effect in the repeat runs; inconclusive = weak or mixed curves; inactive = no such curve, though single readings can be large or run the other way.

molecular target: Cytochrome P450 3A4 (Homo sapiens) (UniProt P08684); experiment: Cytochrome P450 Family 3 Subfamily A Member 4 (CYP3A4) small molecule antagonists: luciferase reporter qHTS assay (AID 1671201); settings: P450-Glo CYP3A4 enzyme, luciferin luminescence, 1 h; series mostly up to 115 µM; note: nearly all actives have a fitted effect of over 50% in size
Chain of UniProt P08684 (P08684 whole entry, looked up): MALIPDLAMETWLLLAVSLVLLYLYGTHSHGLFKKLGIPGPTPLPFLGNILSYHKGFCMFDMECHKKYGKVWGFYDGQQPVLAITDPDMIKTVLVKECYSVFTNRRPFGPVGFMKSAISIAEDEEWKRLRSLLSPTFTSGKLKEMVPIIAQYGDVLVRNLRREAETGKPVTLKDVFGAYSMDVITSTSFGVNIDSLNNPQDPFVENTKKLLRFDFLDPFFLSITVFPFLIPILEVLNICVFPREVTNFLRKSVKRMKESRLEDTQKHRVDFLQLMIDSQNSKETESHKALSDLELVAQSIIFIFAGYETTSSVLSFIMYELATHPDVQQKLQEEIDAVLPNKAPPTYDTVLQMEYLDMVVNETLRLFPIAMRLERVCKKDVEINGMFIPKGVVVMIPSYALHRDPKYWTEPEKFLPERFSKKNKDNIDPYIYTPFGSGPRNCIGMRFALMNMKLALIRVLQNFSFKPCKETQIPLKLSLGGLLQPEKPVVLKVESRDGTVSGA
Text: National Center for Advancing Translational Sciences [NCATS]
U.S. Environmental Protection Agency [EPA]
National Institutes of Environmental Health Sciences [NIEHS]
National Toxicology Program [NTP]
U.S. Food and Drug Administration [FDA]
Cytochrome P450 (CYP) enzymes are membrane-bound hemeproteins that play a key role in metabolism of drugs and xenobiotics. Evaluation of the effect of chemicals on CYP isozymes is useful to minimize the adverse drug reactions and toxicities in drug development process. Tox21 chemicals were tested for their effect on CYP enzyme activities by using P450-Glo (TM) screening systems (Promega Corporation, Madison, WI). These systems provide a luminescent method containing proluciferin substrates and are converted to luciferin products by CYP isozymes. The luciferin products formed are detected with a luciferin detection reagent, and the amount of light produced is proportional to CYP activity. P450-Glo (TM) CYP3A4 screening system (Catalog. No. V9910) was used to detect the compounds that interfere in CYP3A4 activity. The positive control compound used for CYP3A4 assay is ketoconazole (Sigma-Aldrich, St. Louis, MO).
Tox21 Assay Protocol Summary:
Two ul of enzyme-substrate mix was dispensed into medium binding white/solid 1536-well plates (Greiner Bio-One North America Inc., Monroe, NC) using a BioRaptr Flying Reagent Dispenser (FRD, Beckman Coulter, Brea, CA). Compounds dissolved in DMSO and positive control (ketoconazole) were transferred to the assay plates at 23 nl using a Pintool station (Wako, San Diego, CA). The assay plates were incubated at room temperature for 10 min. Then 2 ul of NADPH regeneration solution was added to each well of the assay plates using an FRD and incubated at room temperature for 1 h. The reaction was stopped by adding 4 ul of detection reagent using an FRD and after 20 min incubation at room temperature the luminescence signal was measured using a ViewLux plate reader (Perkin Elmer, Shelton, CT). Data were expressed as relative luminescence units.
Potency is the fitted concentration of half-maximal effect; tags give direction and shape of the fitted curve.

Structure (SMILES)	Potency
CCc1cccc(CC)c1N(COC)C(=O)CCl	inconclusive: 61.3 µM [inhibitor, partial curve] and inconclusive: 79.6 µM [inhibitor, partial curve, poor fit]
COP(=O)(OC)SCn1c(=O)oc2cc(Cl)cnc21	inconclusive: 89.4 µM [inhibitor, partial curve, poor fit]
CC(C)[C@@H](C(=O)O[C@@H](C#N)c1cccc(Oc2ccccc2)c1)c1ccc(Cl)cc1	inconclusive: 79.6 µM [inhibitor, single point]
Cc1cccc(N)c1N	active: 3.86 µM and active: 11.2 µM
Clc1nc(Cl)nc(Cl)n1	inactive and inconclusive: 31.7 µM [inhibitor, full curve]
CC(C)Oc1cc(-n2nc(C(C)(C)C)oc2=O)c(Cl)cc1Cl	inconclusive: 31.7 µM [inhibitor, partial curve]
O=[N+]([O-])c1ccc(Nc2ccccc2)cc1	inconclusive: 80.3 µM [inhibitor, partial curve, poor fit]
CN(C)C(=S)SSC(=S)N(C)C	inconclusive: 56.4 µM [inhibitor, partial curve] and inconclusive: 43.6 µM [inhibitor, single point]
NCC(O)c1ccc(O)cc1 (stereo not given)	inactive
FC(F)C(F)(F)OCC(Cn1cncn1)c1ccc(Cl)cc1Cl (stereo not given)	active: 0.223 µM
Nc1ccccc1-c1ccccc1	inconclusive: 17.7 µM [inhibitor, full curve]
[Cl][Hg][c]1ccccc1	active: 8.94 µM
CS(=O)(=O)c1ccc(C(=O)C2C(=O)CCCC2=O)c([N+](=O)[O-])c1	inactive
Oc1cc(Cl)c(Cl)c(Cl)c1	active: 53.5 µM
CCCCCCCCCCCCn1cc[n+](C)c1	inconclusive: 80 µM [inhibitor, partial curve] and inconclusive: 71 µM [inhibitor, partial curve] and inconclusive: 64.3 µM [inhibitor, partial curve]
NNC(=S)NN	inconclusive: 36.6 µM [inhibitor, partial curve] and inconclusive: 39.9 µM [inhibitor, partial curve]
CC(C)(c1ccccc1)c1ccc(O)cc1	inconclusive: 25 µM [inhibitor, full curve]
CCc1cccc(C)c1N(C(=O)CCl)[C@@H](C)COC	inconclusive: 31.7 µM [inhibitor, full curve]
Cc1ccc2c(c1N)C(=O)c1ccccc1C2=O	inconclusive: 3.95 µM [inhibitor, full curve, poor fit]
Nc1ccccc1C(=O)OCCc1ccccc1	inconclusive: 40.1 µM [inhibitor, partial curve] and inconclusive: 63.3 µM [inhibitor, partial curve]

Structure (SMILES)	Potency
[F][Sn]([c]1ccccc1)([c]1ccccc1)[c]1ccccc1	inconclusive: 5.64 µM [inhibitor, full curve]
Cc1cc(C)c(C(=O)P(=O)(C(=O)c2c(C)cc(C)cc2C)c2ccccc2)c(C)c1	active: 25.2 µM
C=C(Cl)CSC(=S)N(CC)CC	inconclusive: 1.38 µM [inhibitor, full curve]
CCc1cccc(C)c1N(C(=O)CCl)C(C)COC (stereo not given)	inconclusive: 59.6 µM [inhibitor, partial curve]
COP(=S)(OC)Oc1ccc([N+](=O)[O-])cc1	inconclusive: 40 µM [inhibitor, partial curve]
CC1CCCC1	active: 27.8 µM
CC(C)CC(C)(c1ccc(O)cc1)c1ccc(O)cc1	active: 17.9 µM and active: 31.7 µM
OCC(c1ccc(Cl)cc1)c1ccc(Cl)cc1	inactive
Cc1c(COC(=O)[C@@H]2[C@H](/C=C(\Cl)C(F)(F)F)C2(C)C)cccc1-c1ccccc1	inconclusive: 61.9 µM [inhibitor, partial curve, poor fit]
OC(c1ccc(Cl)cc1)(c1ccc(Cl)cc1)C(Cl)(Cl)Cl	inactive
CC(C)[C@@H](Nc1ccc(C(F)(F)F)cc1Cl)C(=O)OC(C#N)c1cccc(Oc2ccccc2)c1 (stereo not given in full)	inconclusive: 15.3 µM [inhibitor, full curve]
S=C=NCCc1ccccc1	active: 20.1 µM
ClC1=C(Cl)[C@]2(Cl)[C@@H]3[C@@H](Cl)[C@H]4O[C@H]4[C@@H]3C1(Cl)C2(Cl)Cl	inconclusive: 3.17 µM [inhibitor, partial curve]
CCC[CH2][Sn]([Cl])([Cl])[CH2]CCC	inconclusive: 79.6 µM [inhibitor, partial curve]
Clc1ccc(C(Cl)(Cl)Cl)cn1	inconclusive: 15.9 µM [inhibitor, full curve]
C[C@H]1CCCC(=O)CCC/C=C/c2cc(O)cc(O)c2C(=O)O1	active: 122 nM and active: 184 nM
O=NN1CCCCC1	inconclusive: 39.7 µM [inhibitor, partial curve]
C=CC1(C)OC(=O)N(c2cc(Cl)cc(Cl)c2)C1=O (stereo not given)	inconclusive: 62.9 µM [inhibitor, partial curve] and inconclusive: 71 µM [inhibitor, partial curve]
N#Cc1sc2c(=O)c3ccccc3c(=O)c=2sc1C#N	active: 17.8 µM
CCCN(CCC)c1c([N+](=O)[O-])cc(C(F)(F)F)cc1[N+](=O)[O-]	inconclusive: 22.4 µM [inhibitor, full curve] and inconclusive: 20 µM [inhibitor, full curve, poor fit]
